These results are taken from the RNAGym collection of RNA variant scans (doi:10.7554/elife.90254).

To fix the notation:
B1: LINE1-mini (parent)
chain: GGCAGAGCUCAACACAGCGUGGCAAAGUGGCUGUGGCUAGACUGCC

Read counts are not given, so values of variants with three or more changes are uncertain.

Variants of B1 are the subject of this data set. The experiment in a line: self-cleavage, relative activity (ratio to wild type); higher = more cleavage; in vitro, sequencing; the parent is a self-cleaving ribozyme.
On to GGGAGAGCUCAACAGACCGUGGCAAAGUGGCUGUGGCUAGACUGCC [C3G C15G G17C], for which the self-cleavage was found to be 0.27.
The figure for GGGAGAGCUCAACACAGCGUGGUAAAGUGGCUGUGGGUAGACUGCC [C3G C23U C37G] is 0.03; for GGGAGAGCUCAACACAGCGUGGUAAAGUGGCUGUGGUUAGACUGCC [C3G C23U C37U] it is 0.18; for GGGAGAGCUCAACAAAGGGUGGCAAAGUGGCUGUGGCUCGACUGCC [C3G C15A C18G A39C] it is 0.06.
Turning to GGGAGAGCUCAACACAGCGUGGCAAAGUGGAUGUGUCUAGACUGCC [C3G C31A G36U], the self-cleavage was found to be 0.15.
The figure for GGGAGAGCUCAACAAAUCUUGGCAAAGUGGCUGUGGCUAGACUGCC [C3G C15A G17U G19U] is 0.04.
For GGGAGAGCUCAACACAGCGUGGCAAAGUGGAUGUGGCGAGACUGCC [C3G C31A U38G], the self-cleavage is 0.04.
The figure for GGGAGAGCUUAACACAGUGUGGCAAAGUUGCUGUGGCUAGACUGCC [C3G C10U C18U G29U] is 0.31; for GGGAGAGCUCAACACAGUGUGGCAAAGUGGCUGUGGCUAGCCUGCC [C3G C18U A41C] it is 0.05; for GGGAGAGCUCAACACAGUGCGGCAAAGUGGCUGUGGCUAGACUGCC [C3G C18U U20C] it is 0.1.
For the variant GGGAGAGCUCAACACAGAGUGGCAAAGUGGCUGUGGCUAGAGUGCC [C3G C18A C42G], the self-cleavage was 0.04.
The figure for GGGAGAGCUCAACACAGUGUGGCAAAGUGGAUGUGUCAAGACUGCC [C3G C18U C31A G36U U38A] is 0.04; for GGGAGAGCUCAACAUAGCGUGGCAAAGUGGCUGUGGCUAUACUGCC [C3G C15U G40U] it is 0.3.
The figure for GGGAGAGCUCAACACAGCGUGGCAAAGUGGUUGUGGCUAGACAUCC [C3G C31U U43A G44U] is 0.04.
As for GGGAGAGCUGAUCGCAGCGUGGCAGAGUGGCUGUCGCUAGACUGCC [C3G C10G A12U A14G A25G G35C], the self-cleavage is 0.01.
The figure for GGGAGAGCUCAACACAGCGUGGCAAAGUGGUUGUGGCUUGACUGCC [C3G C31U A39U] is 0.01; for GGGAGAGCUCAAUACAGCGUGGCAAAGUGGCUGUGUCUAGACUGCA [C3G C13U G36U C46A] it is 0.23.
As for GGGAGAGCUCAAAACAGUGUGGCAAAGUGGCUGUGGCUAGACUGAC [C3G C13A C18U C45A], the self-cleavage worked out at 0.1.
As for GGGAGAGCUCAACAGCGCGUGGCACAGUGGCUGUGGCUAGACUGCC [C3G C15G A16C A25C], the self-cleavage worked out at 0.04.
The figure for GGGAGAGCUCAACACAGCGUGGAAAAGUGGCUGCGGCUAGACUUCC [C3G C23A U34C G44U] is 0.23; for GGGAGAGCUUAACACAGCGUGGAACAGUGGCUAUGGCUAGACUGCC [C3G C10U C23A A25C G33A] it is 0.04; for GGGAGAGCUCAAGACUACGUGGUAAAGUGGCUGUGGCCAGACUGCC [C3G C13G A16U G17A C23U U38C] it is 0.17.
In the case of GGGAAAGCGCAACAGAGCGUGGCUAAGUGGCUGUGGCUAGACAGCC [C3G G5A U9G C15G A24U U43A], the self-cleavage turned out to be 0.08.
With GGGAAAUCUCAACACAGCGUGGCAAAGUGGCUGUGGCUAUACUGCC [C3G G5A G7U G40U], the self-cleavage was 0.15.
Then GGGAGAGCUCAACAUAGCGUGGCGAAGUGGCUGUGGCUAGACUGCC [C3G C15U A24G], with 0.23; and GGGAGAGCUCAACACAGGGUGGCAAUGUGGCUGUGGCUAGACUGCC [C3G C18G A26U], with 0.04.
The figure for GGGAGAGCUCAACACAGCGUGGCAAAGUGGCUGUGGGUAGACUGAC [C3G C37G C45A] is 0.08; for GGGACCGCUCGACACAGCGUUGCAAAGUGGCUGUGGCUAGACUGCU [C3G G5C A6C A11G G21U C46U] it is 0.07; for GGGAGAGCUUAACACAGCGUGGCAAAGUGCCUGUAGCUAGACUGCC [C3G C10U G30C G35A] it is 0.02.
In the case of GGGAGAGCUGAACACAGUGUGGCAAAGUGGCUGUGGCUAGACUGCC [C3G C10G C18U], the self-cleavage amounted to 0.04.
The figure for GGGAGAGCUGAGCACAGCGUGGCAAGGUGGCUGUGGCUAGACUGAC [C3G C10G A12G A26G C45A] is 0.01.
Then GGGAGAGCUCAACAAAGCGUGGCAAAGUGGCUGUGGCUAGAAUGCC [C3G C15A C42A], with 0.25.
Then GGGAGAGCUGAACGCAGCGUGGCAAAGUGGCUGUGGCUAGACUGCC [C3G C10G A14G], with 0.05; and GGGAGAGCUCAACACAGCGUGGUAAAGUGGCAGUGGCUAUACUGCC [C3G C23U U32A G40U], with 0.05.
For GGGAGAGCUAAACACAGCGAGGCAAAGUGGCUGCGGGUAAACUGCC [C3G C10A U20A U34C C37G G40A], the self-cleavage turned out to be 0.01.
GGGAGAGCUCAACAGAGCGUGUCAACGUGGCUGUGGCUAGACUGCC [C3G C15G G22U A26C]: the self-cleavage was determined as 0.02.
In the case of GGGAGAGCUAAACACAGCGUGGCAAAGUGGCUGUGGCUAGAAUGAC [C3G C10A C42A C45A], the self-cleavage was found to be 0.01.
The figure for GGGAGAGCUCAAAACAGCGUGGAAAAGUGGAUGUGGCUAGACAGCC [C3G C13A C23A C31A U43A] is 0.08.
Take GGGAGAGCUCAACACAGUGAGGCAAAGUGGCUGGGGCUAGACUGCC [C3G C18U U20A U34G]: the self-cleavage stood at 0.02.
Regarding GGGAAAGUUCAACACAGCGUCGCAAAGUGGCUGUGGCUAUACUGCC [C3G G5A C8U G21C G40U], the self-cleavage turned out to be 0.26.
Take GGGAGAGCUCAAGACAGCUUGGCAAAGUGGCUGUGGCUAGACUGCC [C3G C13G G19U]: the self-cleavage is 0.91.
The figure for GGGAAAACUCAAGAAAGCGUGGCAAAGUGGCUGUGGCUAGACUGCC [C3G G5A G7A C13G C15A] is 0.13.
Then GGGAGAGCUCAACACAGUGUGGCAAAGUGGCUGUGGCUAGACUGCU [C3G C18U C46U], with 0.08; and GGGAGAGCUCAAGACAGCGUGGCAAAGUGGCUGUGGCUAUACUGCC [C3G C13G G40U], with 0.05; and GGGAGAGCUCAAGACAGCGUGGCAAAGUGGCUGUGGCUACACUGCC [C3G C13G G40C], with 0.06.
GGGAGAGCUCAACAUAGUGUGGCAAAGUAGCUGUGGUUAGACUGCC [C3G C15U C18U G29A C37U]: the self-cleavage is 0.14.
GGGAGAGCUCAAGACAGCGUGGCCAAGUGGCUGUGGCUAGGCUCCC [C3G C13G A24C A41G G44C]: the self-cleavage is 0.09.
The figure for GGGAGAGCUCAACAGAGCGUGGCAAAGUGGCUGUGGCUAGACUGAA [C3G C15G C45A C46A] is 0.02; for GGGAGAGCUCAACACAGCGUGGAAAAGUGGCUGUGGCUAGAGUUCC [C3G C23A C42G G44U] it is 0.02; for GGGAGAGCUCAACACAGCGUGGUAAAGUGGCUGUGGCCAGACUACC [C3G C23U U38C G44A] it is 0.13.
For the variant GGGAGAGCUCAACACAGAGUGGUAAAGUGGCUGUGGCUAGACAGCC [C3G C18A C23U U43A], the self-cleavage was determined as 0.78.
GGGAAAGCUCAACACAGCGUGGUAAAGUGGCUGUGGCUAGACUGCC [C3G G5A C23U]: the self-cleavage was determined as 0.17.
With GGGAGAGCUCAACACAGAAUGGCAAAGUGGCGGUUCCUAGACUGCC [C3G C18A G19A U32G G35U G36C], the self-cleavage worked out at 0.01.
The figure for GGGAGAGCUAAACACAGCGUGGCAAAGUGGCUGUGGAUAGACUGUC [C3G C10A C37A C45U] is 0.01; for GGGAGAGCUCAAUACACCGUGGCAAAGUGGCUGUGCCUAGACUGCC [C3G C13U G17C G36C] it is 0.26.
The figure for GGGAGAGCUCAAUACAGCGUGGCAAAGUGUCUGUGGAUAGACUGCC [C3G C13U G30U C37A] is 0.13.
